According to article PMC2694832, “Pharmacokinetics, tissue distribution and mass balance of radiolabeled dihydroartemisinin in male rats” (Malaria Journal, 2009):
Further values from the same series stand in other lists.

Experiment: Tissue distribution of [^14C] DHA
Type: in vivo
Settings: male rats i.v. 3 mg/20 μCi/kg
Experimental: Rats treated with a single [^14C] DHA dose of 3 mg/20 μCi/kg intravenously (5 rats per group) were anesthaetized by isofluorane and euthanized via cardiac puncture at 1, 6, 24, 48, 72, 96, and 192 hours, post-dosing. Blood, liver, brain, eyes, adrenals, muscle, lungs, heart, liver, kidneys, spleen, stomach, small intestine, large intestine, perirenal fat and bone marrow samples were removed from each animal by gross dissection. The gastrointestinal tract (GI) was separated into the stomach (oesophagus and stomach), small intestine, and large intestine. Contents were procured from each GI segment. After flushing with saline, these and other tissues were stored. Tissues were rinsed gently, but thoroughly with water to remove remaining traces of blood before storage. Dissecting instruments were also washed between tissue procurements to avoid cross-contamination.
For most of the tissues 20% (w/w) aqueous homogenates of the tissue were prepared. Aqueous homogenates of the faecal and GI content samples were also prepared. Metabolism cages were washed with a solution of 2% Count-off® and the volume was measured. Radioactivity in the plasma samples and in aliquots (approx. 0.02–1.0 ml) of urine and cage washings was determined. The blood cells (primarily erythrocytes), perirenal fat (approx. 0.2 g), bone marrow samples (approx. 0.1 ml), and approximately 300-μl aliquots of the homogenates of faeces, liver, kidneys, heart, brain, stomach and carcass were solubilized with SolvableTM tissue solubilizer (Perkin-Elmer Life and Analytical Sciences, Boston, MA). The homogenates of faeces, stomach content, and intestinal contents were extracted with 50% methanol for 24 hours. Aliquots of blood and pooled urine samples from selected intervals were also analysed for DHA content directly.
Total radioactivity in the collected tissue samples were quantified in duplicate. Weighed tissue aliquots (~0.2 g) were digested overnight in 2 ml of Solvable® tissue solubilizer (Perkin-Elmer Life and Analytical Sciences, Boston, MA) at 50°C. Coloured samples were decolourized by adding a maximum of 0.2 ml of 30% H2O2 for 30–60 minutes. Scintillation cocktail (Hyonic Fluor; Perkin-Elmer Boston. Massachusetts, USA) was then added and radioactivity determined in a Perkin-Elmer Tri-Carb 3100 TR scintillation spectrophotometer (Packard Instrument Co., Downers Grove, Illinois, USA). Faeces and intestinal contents were thoroughly homogenized before taking aliquots. Plasma was also analysed using the HPLC-ECD system to measure the concentration of unchanged DHA, as described by Li et al.

- Distribution of radioactivity (Adrenals, 1 hr): 5614.75 ng equivalents/tissue gram
- Distribution of radioactivity (Adrenals, 6 hr): 3451.81 ng equivalents/tissue gram
- Distribution of radioactivity (Adrenals, 24 hr): 2034.62 ng equivalents/tissue gram
- Distribution of radioactivity (Adrenals, 48 hr): 3002.03 ng equivalents/tissue gram
- Distribution of radioactivity (Adrenals, 72 hr): 1630.57 ng equivalents/tissue gram
- Distribution of radioactivity (Adrenals, 96 hr): 1653.43 ng equivalents/tissue gram
- Distribution of radioactivity (Adrenals, 192 hr): 1543.60 ng equivalents/tissue gram
- Distribution of radioactivity (Brain, 1 hr): 578.68 ng equivalents/tissue gram
- Distribution of radioactivity (Brain, 6 hr): 326.57 ng equivalents/tissue gram
- Distribution of radioactivity (Brain, 24 hr): 160.11 ng equivalents/tissue gram
- Distribution of radioactivity (Brain, 48 hr): 127.38 ng equivalents/tissue gram
- Distribution of radioactivity (Brain, 72 hr): 138.35 ng equivalents/tissue gram
- Distribution of radioactivity (Brain, 96 hr): 119.67 ng equivalents/tissue gram
- Distribution of radioactivity (Brain, 192 hr): 133.52 ng equivalents/tissue gram
- Distribution of radioactivity (Eyes, 1 hr): 279.20 ng equivalents/tissue gram
- Distribution of radioactivity (Eyes, 6 hr): 239.95 ng equivalents/tissue gram
- Distribution of radioactivity (Eyes, 24 hr): 64.78 ng equivalents/tissue gram
- Distribution of radioactivity (Eyes, 48 hr): 46.86 ng equivalents/tissue gram
- Distribution of radioactivity (Eyes, 72 hr): 51.58 ng equivalents/tissue gram
- Distribution of radioactivity (Eyes, 96 hr): 98.06 ng equivalents/tissue gram
- Distribution of radioactivity (Eyes, 192 hr): 121.94 ng equivalents/tissue gram
- Distribution of radioactivity (Fat, 1 hr): 1391.80 ng equivalents/tissue gram
- Distribution of radioactivity (Fat, 6 hr): 218.23 ng equivalents/tissue gram
- Distribution of radioactivity (Fat, 24 hr): 80.24 ng equivalents/tissue gram
- Distribution of radioactivity (Fat, 48 hr): 62.09 ng equivalents/tissue gram
- Distribution of radioactivity (Fat, 72 hr): 61.62 ng equivalents/tissue gram
- Distribution of radioactivity (Fat, 96 hr): 43.52 ng equivalents/tissue gram
- Distribution of radioactivity (Fat, 192 hr): 84.86 ng equivalents/tissue gram
- Distribution of radioactivity (Muscle, 1 hr): 698.14 ng equivalents/tissue gram
- Distribution of radioactivity (Muscle, 6 hr): 499.29 ng equivalents/tissue gram
- Distribution of radioactivity (Muscle, 24 hr): 171.74 ng equivalents/tissue gram
- Distribution of radioactivity (Muscle, 48 hr): 163.19 ng equivalents/tissue gram
- Distribution of radioactivity (Muscle, 72 hr): 174.04 ng equivalents/tissue gram
- Distribution of radioactivity (Muscle, 96 hr): 92.20 ng equivalents/tissue gram
- Distribution of radioactivity (Muscle, 192 hr): 115.14 ng equivalents/tissue gram
- Distribution of radioactivity (Plasma, 72 hr): 64.70 ng equivalents/tissue gram
- Distribution of radioactivity (Plasma, 96 hr): 34.58 ng equivalents/tissue gram
- Distribution of radioactivity (Plasma, 192 hr): 22.84 ng equivalents/tissue gram
SMILES: C[C@@H]1CC[C@H]2[C@@H]([14CH3])C(O)O[C@@H]3O[C@@]4(C)CC[C@@H]1[C@]32OO4 (some centres unmarked) [[^14C] DHA, [16-^14C] DHA]
